# Measurements taken from the supplement of paper PMC8728848.
# This is one part of the list.
# Tests used:
# Test in all cases: glycan array binding signal (z-score within array); higher = stronger binding
# Settings in all cases: glycan notation: IUPAC condensed, linker removed
# [1] = target: Neu5Ac(a2-3)Gal(b1-3)GlcNAc6S
# Outline: (§1)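 From the Consortium for Functional Glycomics database, 3228 arrays were curated, keeping only those whose protein sequence was available. Binding is given as a within-array Z-score averaged across arrays sharing a protein sequence and across linkers. Negative Z-scores can be read as non-binding.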
# [2] = target: Neu5Ac(a2-3)Gal(b1-3)[Fuc(a1-4)]GlcNAc
# Outline: as §1
# [3] = target: Neu5Ac(a2-3)Gal(b1-3)[Fuc(a1-4)]GlcNAc(b1-3)Gal(b1-3)[Fuc(a1-4)]GlcNAc
# Outline: as §1
# [4] = target: Neu5Ac(a2-3)Gal(b1-3)[Fuc(a1-4)]GlcNAc(b1-3)Gal(b1-4)[Fuc(a1-3)]GlcNAc
# Outline: as §1
# [5] = target: Neu5Ac(a2-3)Gal(b1-3)[GlcNAc(b1-6)]GalNAc
# Outline: as §1
# [6] = target: Neu5Ac(a2-3)Gal(b1-3)[Neu5Ac(a2-6)]GalNAc
# Outline: as §1
# [7] = target: Neu5Ac(a2-3)Gal(b1-3)[Neu5Ac(a2-6)]GlcNAc(b1-3)[Fuc(a1-3)[Gal(b1-4)]GlcNAc(b1-6)]Gal(b1-4)Glc
# Outline: as §1
# [8] = target: Neu5Ac(a2-3)Gal(b1-3)]Neu5Ac(a2-3)Gal(b1-4)]GlcNAc
# Outline: as §1
# Neu5Ac(a2-3)Gal(b1-4)Glc = target: Neu5Ac(a2-3)Gal(b1-4)Glc
# Outline: as §1
# [9] = target: Neu5Ac(a2-3)Gal(b1-4)GlcNAc
# Outline: as §1
# [10] = target: Neu5Ac(a2-3)Gal(b1-4)GlcNAc(b1-2)Man
# Outline: as §1
# [11] = target: Neu5Ac(a2-3)Gal(b1-4)GlcNAc(b1-2)Man(a1-3)[GlcNAc(b1-4)][Neu5Ac(a2-3)Gal(b1-4)GlcNAc(b1-2)Man(a1-6)]Man(b1-4)GlcNAc(b1-4)GlcNAc
# Outline: as §1
# [12] = target: Neu5Ac(a2-3)Gal(b1-4)GlcNAc(b1-2)Man(a1-3)[Neu5Ac(a2-3)Gal(b1-4)GlcNAc(b1-2)Man(a1-6)]Man(b1-4)GlcNAc(b1-4)GlcNAc
# Outline: as §1
# [13] = target: Neu5Ac(a2-3)Gal(b1-4)GlcNAc(b1-2)Man(a1-3)[Neu5Ac(a2-3)Gal(b1-4)GlcNAc(b1-2)Man(a1-6)]Man(b1-4)GlcNAc(b1-4)[Fuc(a1-6)]GlcNAc
# Outline: as §1
# [14] = target: Neu5Ac(a2-3)Gal(b1-4)GlcNAc(b1-2)Man(a1-3)[Neu5Ac(a2-6)Gal(b1-4)GlcNAc(b1-2)Man(a1-6)]Man(b1-4)GlcNAc(b1-4)GlcNAc
# Outline: as §1
# [15] = target: Neu5Ac(a2-3)Gal(b1-4)GlcNAc(b1-2)[Neu5Ac(a2-3)Gal(b1-4)GlcNAc(b1-4)]Man(a1-3)[GlcNAc(b1-4)][Neu5Ac(a2-3)Gal(b1-4)GlcNAc(b1-2)[Neu5Ac(a2-3)Gal(b1-4)GlcNAc(b1-6)]Man(a1-6)]Man(b1-4)GlcNAc(b1-4)GlcNAc
# Outline: as §1
# [16] = target: Neu5Ac(a2-3)Gal(b1-4)GlcNAc(b1-2)[Neu5Ac(a2-3)Gal(b1-4)GlcNAc(b1-4)]Man(a1-3)[GlcNAc(b1-4)][Neu5Ac(a2-3)Gal(b1-4)GlcNAc(b1-4)Man(a1-6)]Man(b1-4)GlcNAc(b1-4)GlcNAc
# Outline: as §1
# [17] = target: Neu5Ac(a2-3)Gal(b1-4)GlcNAc(b1-2)[Neu5Ac(a2-3)Gal(b1-4)GlcNAc(b1-6)]Man(a1-6)[Neu5Ac(a2-3)Gal(b1-4)GlcNAc(b1-2)Man(a1-3)][GlcNAc(b1-4)]Man(b1-4)GlcNAc(b1-4)GlcNAc
# Outline: as §1
# [18] = target: Neu5Ac(a2-3)Gal(b1-4)GlcNAc(b1-3)Gal
# Outline: as §1
# [19] = target: Neu5Ac(a2-3)Gal(b1-4)GlcNAc(b1-3)Gal(b1-3)GlcNAc
# Outline: as §1
# [20] = target: Neu5Ac(a2-3)Gal(b1-4)GlcNAc(b1-3)Gal(b1-4)GlcNAc
# Outline: as §1
# [21] = target: Neu5Ac(a2-3)Gal(b1-4)GlcNAc(b1-3)Gal(b1-4)GlcNAc(b1-2)Man(a1-3)[Neu5Ac(a2-3)Gal(b1-4)GlcNAc(b1-3)Gal(b1-4)GlcNAc(b1-2)Man(a1-6)]Man(b1-4)GlcNAc(b1-4)GlcNAc
# Outline: as §1
binder,measurement,setting,value
rEtpA (Escherichia coli) (protein) MNRIYKLKFDKRRNELVVVSEITTGVGNAKATGSVEGEKSPRRGVRAMALSLLSGMMIMAHPAMSANLPTGGQIVAGSGSIQTPSGNQMNIHQNSQNMVANWNSFDIGKGNTVQFDQPSSSAVALNRVVGGGESQIMGNLKANGQVFLVNPNGVLFGEGASVSTSGFVASTRDIKNDDFMNRRYTFSGGQKAGAAIVNQGELTTNAGGYIVLAADRVSNSGTIRTPGGKTVLAASERITLQLDNGGLMSVQVTGDVVNALVENRGLVSARDGQVYLTALGRGMLMNTVLNVSGVVEASGMHRQDGNIVLDGGDSGVVHLSGTLQADNASGQGGKVVVQGKNILLDKGSNITATGGQGGGEVYVGGGWQGKDSNIRNADKVVMQGGARIDVSATQQGNGGTAVLWSDSYTNFHGQISAKGGETGGNGGRVETSSHGNLQAFGTVSASAKKGKAGNWLLDSADITIVNGSNVSKTETTQSPPHTQFAPTAAGSAVSNTSINNRLNNGTSVTILTHRTRTGTAQGGNITVNAAINKSNGSDVNLTLQAGGNITVNNSITSTEGKLNVNLSGARTSNGSITISNNANITTNGGDITVGTTNTSNRVNISINNTTLNASNGNIQLTGTGTDSGILFAGNNRLTASNIALTGNSTSGNAINLTGTATLNATNNITLTGSSTSGNAINLKGNNTLTASNITLTGESTSGNAINLTDTTGTTTLNATNNITMQGTRVQIKHSNITAGNFALNATVAGSEISNTTLTATNNINLAAKTNSASSGVYLKDARITSTNGSITANGTATANGKATHLDGNVTLNASNGRIKLTGNGHGSASGILFAGNNRLTASNIALTGNSTSGNAINLTGTATLNATNDITLTGSSTSGNAINLTGTATLNATNNITLTGSSTSGNAINLKGNNTLTASNITLTGESTSGNAINLTDTTGTTTLNATNNITMQGTRVQIKHSNITAGNFALNATVAGSEISNTTLTATNNINLAAKTNSASSGVYLKDARITSTNGSITANGTATANGKATHLDGNVTLNASNGRIKLTGNGHGSASGILFAGNNRLTASNIALTGNSTSGNAINLTGTATLNATNDITLTGSSTSGNAINLTGTATLNATNNITLTGSSTSGNAINLKGNNTLTASNITLTGESTSGNAINLTDTTGTTTLNATNNITMQGTRVQIKHSNITAGNFALNATVAGSEISNTTLTATNNINLAAKTNSASSGVYLKDARITSTNGSITANGTATANGKATHLDGNVTLNASNGRIKLTGNGHGSASGILFAGNNRLTASNIALTGNSTSGNAINLTGTATLNATNDITLTGSSTSGNAINLTGTATLNATNNITLTGSSTSGNAINLKGNNTLTASNITLTGESTSGNAINLTDTTGTTTLNATNNITMQGTRVQIKHSNITAGNFALNATVAGSEISNTTLTATNNINLAAKTNSASSGVYLKDARITSTNGSITTNGTATANGKATHLDGNVTLNASNGRIKLTGNGHGSASGILFAGNNRLTASNIALTGNSTSGNAINLTGTATLNATNDITLTGSSTSGNAINLTGTATLNATNNITLTGSSTSGNAINLKGNNTLTASNITLTGESTSGNAINLTDTTGTTTLNATNNITMQGTRVQIKHSNITAGNFALNATVAGSEISNTTLTATNNINLAAKTNSASSGVYLKDARITSTNGSITANGTAPANDNATYLDGNVTLNASNGSIKLTGNGNGSTSGILFAGNNTLTASNITLTGNSEVYWQKLGPEQKLISEEDLNSAVDHHHHHH,glycan array binding signal (z-score),[1],0.674
same,glycan array binding signal (z-score),[2],-0.378
same,glycan array binding signal (z-score),[3],-0.206
same,glycan array binding signal (z-score),[4],-0.21
same,glycan array binding signal (z-score),[5],-0.329
same,glycan array binding signal (z-score),[6],-0.002
same,glycan array binding signal (z-score),[7],-0.356
same,glycan array binding signal (z-score),[8],-0.416
same,glycan array binding signal (z-score),Neu5Ac(a2-3)Gal(b1-4)Glc,1.63
same,glycan array binding signal (z-score),[9],-0.299
same,glycan array binding signal (z-score),[10],0.347
same,glycan array binding signal (z-score),[11],0.086
same,glycan array binding signal (z-score),[12],0.268
same,glycan array binding signal (z-score),[13],-0.371
same,glycan array binding signal (z-score),[14],-0.305
same,glycan array binding signal (z-score),[15],-0.373
same,glycan array binding signal (z-score),[16],-0.198
same,glycan array binding signal (z-score),[17],-0.327
same,glycan array binding signal (z-score),[18],0.019
same,glycan array binding signal (z-score),[19],-0.414
same,glycan array binding signal (z-score),[20],0.276
same,glycan array binding signal (z-score),[21],-0.408
